Measured values from the supplement of paper PMC3334620.
Whole data set: some 33,000 sequences, median “E-score (-0.5 to 0.5)” near -0.054, cut for the highest 2% near 0.39. This is one part of the list.

The sequences below were run against Ylr278c (UniProt Q05854) (assay: PBM E-score (8-mer binding enrichment) (E-score (-0.5 to 0.5)); higher = stronger / more preferred TF binding; most listed sequences are background and not binding sites). Conditions: protein concentration: 200 nM; construct: GST-DNA-binding domain.
Protocol: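 Universal 'all 10-mer' protein binding microarrays (Agilent AMADID 015681) probed with GST-tagged S. cerevisiae TFs (full-length or DBD) made by in vitro transcription/translation (PURExpress), about 100-200 nM. Bound TF was detected with fluorescent anti-GST. Each ungapped 8-mer (which stands for itself and its reverse complement) is scored by the PBM enrichment score (E-score), a modified Wilcoxon-Mann-Whitney statistic from -0.5 to +0.5, computed with the Universal PBM Analysis Suite. Scale: above 0.35 generally sequence-specific binding.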

Row | Sequence | PBM E-score
1 | CTCCTTCC | -0.0757
2 | ACGCAGAT | 0.218
3 | CAAGATTC | 0.0907
4 | GAATCAGA | -0.00635
5 | AGATAGAC | -0.185
6 | ATATATGC | 0.0523
7 | ACGCTTGG | -0.238
8 | CTGCTTGA | -0.294
9 | AGCTAACT | 0.00346
10 | ACAGTATC | -0.228
11 | AGAAGGCG | -0.15
12 | CTGGATCC | 0.162
13 | GGGTGGGA | 0.16
14 | AATACGGT | -0.0632
15 | GAACTCTC | 0.0657
16 | GATCCTTA | -0.268
17 | ACACGCAT | -0.0465
18 | CACCAAAC | -0.119
19 | ATTACTTG | -0.244
20 | ATGCGCTG | -0.0507
21 | CCCGTGGA | 0.0749
22 | CCCCCCAA | -0.204
23 | GAGGAACA | -0.0163
24 | CCGCCGTA | 0.354
25 | CTGTGACC | -0.0578

Row | Sequence | PBM E-score
26 | GCGCCTAC | 0.0176
27 | AACCAGGA | 0.00985
28 | TAGCAAAA | 0.0592
29 | GTGACCAC | 0.00848
30 | CCTAGACC | -0.209
31 | CTACCATA | -0.196
32 | AAAAGCTC | -0.0262
33 | CGTGTAAA | -0.0849
34 | CCTTGGTC | -0.221
35 | CTATAGAG | -0.103
36 | CGCCACGC | 0.0477
37 | TCCCTGAA | -0.217
38 | CTAGTCTA | -0.232
39 | AAATTCGT | 0.0199
40 | AACTCTAT | 0.0647
41 | CCCGGTAA | 0.309
42 | ACTACTAA | -0.00405
43 | AATCTTTA | -0.0903
44 | ACCAGTTG | -0.202
45 | CGATTGCC | 0.157
46 | CGCCGCAA | 0.343
47 | AGTGCACG | -0.101
48 | AGGTTTTA | -0.0246
49 | CAATATGC | 0.0153
50 | ATCGCGTC | -0.0429

Row | Sequence | PBM E-score
51 | ACTTGACT | -0.146
52 | CGCTCCTA | -0.00469
53 | AGCAAAAG | -0.275
54 | CCTAGAAA | -0.0836
55 | CTCGATAC | -0.0817
56 | AAGTGTAT | -0.261
57 | CCTATCAA | -0.099
58 | CAGCGGCG | 0.225
59 | TACTTAAA | -0.0424
60 | CGCAGGAA | 0.057
61 | AACGCTGA | -0.129
62 | TGTAAAAA | -0.125
63 | CAGGATGA | -0.276
64 | AACTAGCT | -0.285
65 | ATGCGTTC | 0.025
66 | ATCGGAGA | 0.455
67 | GAACGGCC | 0.15
68 | AGTGCTAG | -0.0906
69 | GTGAACAA | 0.0369
70 | AATCTGTC | 0.0271
71 | ACGATACA | -0.235
72 | ACTACCCC | 0.0399
73 | AAACAGGG | -0.167
74 | ACCCCGAA | 0.392
75 | AAGTCCTA | 0.0365

Row | Sequence | PBM E-score
76 | ACGCTTGC | -0.164
77 | AAAGACGC | -0.0982
78 | TATCTCCA | 0.0459
79 | CTATACAC | -0.2
80 | CTACTTGC | -0.0122
81 | AGAGGACG | -0.121
82 | CCTGCCAA | -0.0215
83 | GGAGTAAA | 0.238
84 | ATCGCGCC | 0.18
85 | AACAGCTT | -0.0746
86 | GGTTAGGA | -0.193
87 | AACCATAT | -0.0256
88 | CGGAGCGA | 0.415
89 | CAAGTGGC | -0.0625
90 | GCCAAGAA | 0.00882
91 | TCTCAAAA | -0.0269
92 | ATAAGCTG | -0.184
93 | CACCTGAC | -0.27
94 | ATTCGGGG | 0.345
95 | CGGCTCCC | 0.136
96 | CGCGCTTC | 0.146
97 | ACTCAGAG | -0.119
98 | AGACTCAT | -0.202
99 | TAGACATA | -0.164
100 | CGCACAAA | 0.192

Row | Sequence | PBM E-score
101 | ACGAACCT | 0.00357
102 | ATTCGGAA | 0.36
103 | CTAGTATA | -0.0386
104 | AGGGTACT | -0.265
105 | ATCCAGCG | 0.134
106 | GCACCGTA | 0.0145
107 | AATGATGT | 0.00414
108 | GAAGCCTC | -0.113
109 | TGAGTCCA | -0.134
110 | AGTTCCGG | 0.433
111 | AACTACAA | 0.065
112 | GCCTTACC | -0.147
113 | GGTGCGGA | 0.284
114 | ATGTAACC | 0.0132
115 | CAGACAAC | -0.0844
116 | ACACGGAG | 0.419
117 | CTCTTTCC | 0.152
118 | CCTACTGA | -0.128
119 | ACTCGGTG | 0.0389
120 | ATAGCCTC | 0.1
121 | AAACTTGG | -0.0263
122 | TGTCAACA | -0.0997
123 | GCCGGATA | 0.4
124 | GGGTTTCA | 0.213
125 | GGTCCCGA | 0.205

Row | Sequence | PBM E-score
126 | CGCGCTAC | 0.123
127 | CAGCTTTA | -0.0383
128 | AGCGCCTA | 0.0564
129 | CGGGTGTC | 0.113
130 | ACTAGCCA | -0.292
131 | AAGACTCC | -0.044
132 | TAAGCCCA | -0.159
133 | AACGTCCC | -0.12
134 | CGATCGCC | 0.251
135 | CCAGCTAC | -0.241
136 | GAAGTACA | -0.0211
137 | AAAGGAGC | -0.055
138 | CACGCTAC | -0.207
139 | GGGTCGGA | 0.374
140 | ACTGGTGG | -0.255
141 | GAACCTCA | -0.126
142 | GTGGACAA | 0.124
143 | CGAGTGTC | -0.00398
144 | AAGGGTCC | 0.216
145 | CTATTACA | -0.0704
146 | GGACACCC | 0.0133
147 | GCAAGCGC | 0.129
148 | AAATGAGT | 0.101
149 | ACGAAAGT | -0.0616
150 | AACCAATC | 0.118

Row | Sequence | PBM E-score
151 | AAGCGAGC | 0.112
152 | TGGACCCA | -0.111
153 | ATACATAG | -0.217
154 | CATGACAG | -0.208
155 | AACTTCAA | -0.155
156 | ATAAAACC | 0.0587
157 | CTACGCGA | -0.178
158 | ATAAGAGA | 0.15
159 | GTGAAATA | -0.135
160 | GAACCTGA | -0.161
161 | CAGCTTAA | -0.138
162 | GGACAACA | 0.0824
163 | ACCTTCGA | -0.146
164 | ACACGACT | -0.185
165 | CATCGCAA | -0.28
166 | TCACGGGA | 0.139
167 | AGATACAT | -0.223
168 | TGACAAAA | -0.115
169 | TGCGCCCA | -0.123
170 | GGAAAGTA | 0.0736
171 | CCCGTCAG | 0.0893
172 | AACTGTGA | -0.122
